From the supplement of paper PMC4604168 (melanoma cell lines)
The list shows a part of the results. Single values are uncertain, as repeats are few or missing.

Legend:
Assay in all cases: cell count relative to DMSO control; melanoma cells; higher = more viable cells
Conditions in all cases: library dose: low library concentration; 72 h
[1] = tested on: MZ2-MEL
[2] = tested on: MeWo
[3] = tested on: RPMI7951
[4] = tested on: RVH-421
[5] = tested on: SkMel28
[6] = tested on: SkMel30
[7] = tested on: SkMel5
[8] = tested on: UACC257
[9] = tested on: UACC62
[10] = tested on: SkMel2
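Note: cell number obtained by counting DAPI-stained nuclei in high-throughput microscope images with image analysis software, screen run in 1,536-well plates.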

Row | SMILES | cell count [1] | cell count [2] | cell count [3] | cell count [4] | cell count [5] | cell count [6] | cell count [7] | cell count [8] | cell count [9] | cell count [10]
1 | Cn1cncc1[C@@](N)(c1ccc(Cl)cc1)c1ccc2c(c1)c(-c1cccc(Cl)c1)cc(=O)n2C [tipifarnib] + Cc1cc(SCc2sc(-c3ccc(C(F)(F)F)c(F)c3)nc2C)ccc1OCC(=O)O [GW0742] (first compound 0.01 µM, partner dose 2 µM) | 112% | 81% | 97.9% | 109% | 88% | 108% | 105% | 101% | 82.5% | 
2 | O=C(/C=C/c1cccnc1)NCCCCC1CCN(C(=O)c2ccccc2)CC1 + Cn1cc(C2=C(c3cn(C4CCN(Cc5ccccn5)CC4)c4ccccc34)C(=O)NC2=O)c2ccccc21 [Enzastaurin] (first compound 0.01 µM, partner dose 0.8 µM) | 42.8% | 101% | 88.8% | 60.9% | 91.8% | 105% |  |  | 115% | 25.6%
3 | Cc1cc(SCc2sc(-c3ccc(C(F)(F)F)c(F)c3)nc2C)ccc1OCC(=O)O + Oc1nc(-c2ccc(C(F)(F)F)cc2)nc2c1CSCC2 [XAV939] (first compound 2 µM, partner dose 2 µM) | 98.1% | 91.4% | 100% | 62% | 84.5% | 101% | 81.9% | 83.5% | 93.7% | 
4 | Nc1cccc2c1CN(C1CCC(=O)NC1=O)C2=O (stereo not drawn) [lenalidomide] + O=C(Oc1ccc([N+](=O)[O-])cc1)N1CCC(C(O)(c2ccc3c(c2)OCO3)c2ccc3c(c2)OCO3)CC1 [JZL184] (first compound 1 µM, partner dose 1 µM) | 110% | 103% | 137% | 112% | 112% | 93.1% | 92.2% | 112% | 92.1% | 
5 | CCCCCCCCc1ccc(CCC(N)(CO)CO)cc1 [fingolimod] + N.N.[Cl][Pt][Cl] [cisplatin] (first compound 2 µM, partner dose 1.6 µM) | 97.7% | 84.8% | 85% | 82.6% | 87.8% | 85.8% |  |  | 87.9% | 96.4%
6 | CN(c1ncccc1CNc1nc(Nc2ccc3c(c2)CC(=O)N3)ncc1C(F)(F)F)S(C)(=O)=O + N.N.[Cl][Pt][Cl] [cisplatin] (first compound 0.08 µM, partner dose 1.6 µM) | 93.7% | 94.2% | 81.1% | 88.7% | 79.6% | 109% |  |  | 83.7% | 88.3%
7 | O=c1[nH]nc(Sc2ncc([N+](=O)[O-])s2)n1-c1ccc2c(c1)OCCO2 + N.N.[Cl][Pt][Cl] [cisplatin] (first compound 0.2 µM, partner dose 1.6 µM) | 102% | 103% | 90% | 70.8% | 90.9% | 111% |  |  | 89% | 97.7%
8 | COc1cc([C@@H]2c3cc4c(cc3[C@@H](O[C@@H]3O[C@@H]5CO[C@@H](C)O[C@H]5[C@H](O)[C@H]3O)[C@H]3COC(=O)[C@H]23)OCO4)cc(OC)c1O [etoposide] + Cn1cc(C2=C(c3cn(C4CCN(Cc5ccccn5)CC4)c4ccccc34)C(=O)NC2=O)c2ccccc21 [Enzastaurin] (first compound 0.02 µM, partner dose 0.8 µM) | 95.8% | 110% | 81.1% | 89.9% | 85.2% | 120% |  |  | 87.3% | 92.7%
9 | NC(=O)c1ccc(N(C(N)=O)c2c(F)cccc2F)nc1-c1ccc(F)cc1F + N.N.[Cl][Pt][Cl] [cisplatin] (first compound 0.4 µM, partner dose 1.6 µM) | 92.3% | 103% | 100% | 96.8% | 83.3% | 103% |  |  | 93.2% | 92.6%
10 | CC(C)(C)c1cnc(CSc2cnc(NC(=O)C3CCNCC3)s2)o1 + O=C(Oc1ccc([N+](=O)[O-])cc1)N1CCC(C(O)(c2ccc3c(c2)OCO3)c2ccc3c(c2)OCO3)CC1 [JZL184] (first compound 0.01 µM, partner dose 1 µM) | 92.5% | 105% | 97.6% | 99.7% | 86.1% | 96% | 88.5% | 81.1% | 76.8% | 
11 | C=CCNC1=C2C[C@@H](C)C[C@H](OC)[C@H](O)[C@@H](C)/C=C(\C)[C@H](OC(N)=O)[C@@H](OC)/C=C\C=C(/C)C(=O)NC(=CC1=O)C2=O [Tanespimycin] + C[As](C)SC[C@H](NC(=O)CC[C@H](N)C(=O)O)C(=O)NCC(=O)O [Darinaparsin] (first compound 0.002 µM, partner dose 0.4 µM) | 105% | 90.6% | 85% | 88.3% | 101% | 78.2% |  |  | 82.4% | 90.2%
12 | Cc1cc(Nc2cc(N3CCN(C)CC3)nc(/C=C/c3ccccc3)n2)n[nH]1 + N.N.[Cl][Pt][Cl] [cisplatin] (first compound 0.04 µM, partner dose 1.6 µM) | 101% | 109% | 125% | 94.4% | 91.6% | 101% |  |  | 103% | 95.4%
13 | CN(NC(=O)CC(=O)NN(C)C(=S)c1ccccc1)C(=S)c1ccccc1 + C/C(O)=C(\C#N)C(=O)Nc1cc(Br)ccc1Br [LFM-A13] (first compound 0.006 µM, partner dose 2 µM) | 97.4% | 84% | 117% | 78% | 80.6% | 93.7% | 96.5% | 60.6% | 68.4% | 
14 | Nc1ncn([C@H]2C[C@H](O)[C@@H](CO)O2)c(=O)n1 [decitabine] + C[As](C)SC[C@H](NC(=O)CC[C@H](N)C(=O)O)C(=O)NCC(=O)O [Darinaparsin] (first compound 0.1 µM, partner dose 0.4 µM) | 86.7% | 102% | 85.2% | 97.2% | 80.6% | 113% |  |  | 80.6% | 86.3%
15 | CC[C@]1(O)C[C@H]2CN(CCc3c([nH]c4ccccc34)[C@@](C(=O)OC)(c3cc4c(cc3OC)N(C=O)[C@H]3[C@@](O)(C(=O)OC)[C@H](OC(C)=O)[C@]5(CC)C=CCN6CC[C@]43[C@@H]65)C2)C1 [vincristine] + C[As](C)SC[C@H](NC(=O)CC[C@H](N)C(=O)O)C(=O)NCC(=O)O [Darinaparsin] (first compound 0.0001 µM, partner dose 0.4 µM) | 79.9% | 70.1% | 42.2% | 70.4% | 60.3% | 48.8% |  |  | 40.7% | 85.5%
16 | CC1(C)NC(=O)N(c2ccc([N+](=O)[O-])c(C(F)(F)F)c2)C1=O [nilutamide] + O=C(Oc1ccc([N+](=O)[O-])cc1)N1CCC(C(O)(c2ccc3c(c2)OCO3)c2ccc3c(c2)OCO3)CC1 [JZL184] (first compound 1 µM, partner dose 1 µM) | 101% | 110% | 98.3% | 73.4% | 109% | 95.3% | 108% | 108% | 91.1% | 
17 | Cc1cn(-c2cc(NC(=O)c3ccc(C)c(Nc4nccc(-c5cccnc5)n4)c3)cc(C(F)(F)F)c2)cn1 [nilotinib] + Cn1cc(C2=C(c3cn(C4CCN(Cc5ccccn5)CC4)c4ccccc34)C(=O)NC2=O)c2ccccc21 [Enzastaurin] (first compound 0.2 µM, partner dose 0.8 µM) | 98.3% | 116% | 102% | 74.1% | 107% | 82.8% |  |  | 83.3% | 95.4%
18 | O=c1[nH]nc(Sc2ncc([N+](=O)[O-])s2)n1-c1ccc2c(c1)OCCO2 + C[As](C)SC[C@H](NC(=O)CC[C@H](N)C(=O)O)C(=O)NCC(=O)O [Darinaparsin] (first compound 0.2 µM, partner dose 0.4 µM) | 110% | 92.6% | 81.9% | 90.4% | 96.6% | 104% |  |  | 95.4% | 95.7%
19 | O=C(O)[C@@H]1[O][Sb](=[O])([O][Sb]2(=[O])[O][C@H]([C@H](O)CO)[C@H](O)[C@H](C(=O)O)[O]2)[O][C@H]([C@H](O)CO)[C@@H]1O (stereo partly drawn) [stibogluconate] + C[As](C)SC[C@H](NC(=O)CC[C@H](N)C(=O)O)C(=O)NCC(=O)O [Darinaparsin] (first compound 2 µM, partner dose 0.4 µM) | 99.1% | 97.7% | 93.5% | 114% | 90.9% | 105% |  |  | 97.5% | 103%
20 | O=C(O)c1ccc(-c2c[nH]c3ncc(-c4ccccc4)cc23)cc1C1CCCC1 + C/C(O)=C(\C#N)C(=O)Nc1cc(Br)ccc1Br [LFM-A13] (first compound 0.16 µM, partner dose 2 µM) | 99% | 85.3% | 96.1% | 118% | 83.2% | 107% | 99.2% | 101% | 82.1% | 
21 | OCCn1cc(-c2cnc3nnn(Cc4ccc5ncccc5c4)c3n2)cn1 + Cc1cc(SCc2sc(-c3ccc(C(F)(F)F)c(F)c3)nc2C)ccc1OCC(=O)O [GW0742] (first compound 1 µM, partner dose 2 µM) | 103% | 107% | 100% | 99.6% | 89.1% | 120% | 98.6% | 94.9% | 92.1% | 
22 | COc1ccc2c(c1)CCC1C2CCC2(C)C(NCCCCCCN3C(=O)C=CC3=O)CCC12 (stereo not drawn) + C/C(O)=C(\C#N)C(=O)Nc1cc(Br)ccc1Br [LFM-A13] (first compound 0.4 µM, partner dose 2 µM) | 94.6% | 89.1% | 84.7% | 112% | 77.6% | 96.7% | 91.4% | 73.4% | 87% | 
23 | CN(NC(=O)CC(=O)NN(C)C(=S)c1ccccc1)C(=S)c1ccccc1 + O=C(Oc1ccc([N+](=O)[O-])cc1)N1CCC(C(O)(c2ccc3c(c2)OCO3)c2ccc3c(c2)OCO3)CC1 [JZL184] (first compound 0.006 µM, partner dose 1 µM) | 102% | 82.2% | 87.6% | 94.8% | 83.8% | 104% | 81.9% | 87.4% | 88.1% | 
24 | COC(=O)c1sccc1S(=O)(=O)Nc1ccc(Nc2ccccc2)cc1OC + C/C(O)=C(\C#N)C(=O)Nc1cc(Br)ccc1Br [LFM-A13] (first compound 1 µM, partner dose 2 µM) | 93.2% | 92% | 112% | 104% | 86.8% | 102% | 86.5% | 95.4% | 105% | 
